Source: the RNAGym collection of RNA variant scans (doi:10.7554/elife.90254)
Read counts are not given, so values of variants with three or more changes are uncertain.

B1: LINE1-mini (parent)
chain: GGCAGAGCUCAACACAGCGUGGCAAAGUGGCUGUGGCUAGACUGCC

Variants of: B1
Assay: self-cleavage, relative activity (ratio to wild type); higher = more cleavage; in vitro, sequencing; the parent is a self-cleaving ribozyme

Row | Variant | self-cleavage
1 | A6C A25C C42G | 0.05
2 | A6C C10A A16G A39C | 0.08
3 | A6C G7A C23U | 0.07
4 | G5U U32G A39U U43C | 0.02
5 | A6C G19U A25G | 0.49
6 | A6C A26G U28A | 2.56
7 | A6C A26U C31U | 0.14
8 | G5U U9C C37A U38A A39G | 0.02
9 | A6C C10A C37A | 0.01
10 | G5U U9A G36C | 0.02
11 | A6C G29C C42U | 0.04
12 | A6C G29C C42G | 0.01
13 | A6C G29C C42A | 0.05
14 | A6C C18A G19U | 0.04
15 | G5U U32C G33A | 0.06
16 | A6C A25C A26U | 1.51
17 | A6C G22C G33C C37A A41G | 0.1
18 | A6C C10A C45G | 0.05
19 | A6C G33U G36C | 0.09
20 | A6C C23U G30A G40C | 0.07
21 | G5U U28A G44C | 0.02
22 | A6C G33U A39G | 0.06
23 | A6C G22U G35C | 0.04
24 | A6C C8A A14C G19U G22U A26C | 0.14

Row | Variant | self-cleavage
25 | A6C G7A U43A C45U | 0.07
26 | A6C U9A G21U G36U | 0.05
27 | A6C A24U A25U | 0.26
28 | A6C A16C G19A G22U A41U | 0.02
29 | A6C C8U A11U G36C C45G | 0
30 | A6C A12G U28C | 0.04
31 | A6C C31A U43C | 0.01
32 | G5U U9G C37U | 0.13
33 | G5U U9C A25C U43A G44U | 0.01
34 | A6C G33A A41U | 0.13
35 | A6C G30A G36U G44A | 0.05
36 | G5U U9G C10U A16G G19U G22C A24G U32G | 0.01
37 | A6C A41U U43G | 0.09
38 | A6C G35U A39C | 0.11
39 | G5U U9A G35C | 0.23
40 | A6C G19A C23U U32G | 0.1
41 | A6C C18U G27A U43A | 0.02
42 | G5U U20G G21U G33C C37G | 0.08
43 | A6C G21U C23A G44A | 1.47
44 | G5U U28G G33A C45G | 0.01
45 | A6C A11C U38G | 0
46 | A6C C10G G17U G19A U34G C42A G44A | 0
47 | G5U U9G C15A | 0.24
48 | G5U U28G G30A | 0.03

Row | Variant | self-cleavage
49 | G5U U20A G22A A24G G27U A39G | 0.03
50 | A6C A11U C13A G17C G22A | 0.04
51 | A6C C8U G36A C45A | 0.07
52 | A6C C10A G30C G40C | 0.01
53 | A6C C15A G17U | 0.02
54 | A6C C13A C31G | 0.09
55 | A6C A26C U34A | 0.07
56 | G5U U34C G40A | 0.06
57 | A6C C10A C13G | 0.01
58 | A6C A11C C23U A24C G29C G36A | 0
59 | A6C C8U G30U G35U A41C U43A C46A | 0.05
60 | A6C C10A G22U G44U | 0.03
61 | A6C C31G U32C U38A C42A | 0.01
62 | A6C A11U G40U | 0
63 | G5U U28G U34G G35U | 0
64 | A6C A24G G27U U28C G36U | 0.06
65 | A6C G30C G36C G40A G44U | 0.02
66 | A6C G22A G30C U38A | 0.25
67 | A6C C18G G40A C42A | 0.09
68 | A6C U9A G30C C37G | 0.02
69 | A6C G17C G30A C42U | 0.13
70 | A6C A25U G27U U32G | 0.03
71 | G5U U20G U28G | 0.07
72 | A6C C15G C46A | 0.02

Row | Variant | self-cleavage
73 | A6C G29C G35U G44A | 0.03
74 | A6C A24U U43A C46G | 0.01
75 | G5U U9A G40U | 0.18
76 | A6C G22A A41G | 0.52
77 | A6C A12G U38C A41C G44C | 0
78 | A6C U9A U20C G40U C45U | 0.08
79 | A6C G33A G36A C42A | 0.03
80 | A6C C10A C46A | 0.07
81 | A6C C10G C15A G27U C46G | 0.01
82 | G5U U34C U43C | 0.02
83 | A6C G7C C13U A24G C37U | 0.09
84 | A6C U9C C13A G30U C37G A41U C42A | 0.01
85 | A6C C10G C31G C42G U43G | 0
86 | A6C C23G G27U A39G A41C | 0
87 | A6C C18U G30C G40U | 0.18
88 | A6C C15G G27A U32G C45G | 0.02
89 | A6C G21A G36U U38C | 0.12
90 | A6C C15U G40A | 0.04
91 | A6C G19C C23A | 0.1
92 | A6C C31G C42G | 0.03
93 | A6C C18A G19C G27A C46A | 1.4
94 | A6C G17U G22C G27U | 0.41
95 | A6C A14G G21U | 0.07
96 | A6C C13U A25U | 0.06

Row | Variant | self-cleavage
97 | A6C G7U A24C G35U | 0.15
98 | A6C A25C C31U G33C | 0.05
99 | A6C G7A A11U A24C | 0.01
100 | A6C C10A A12G C31U | 0.01
101 | G5U U20G G27A U38C | 0.06
102 | A6C C13A C15A | 0.06
103 | A6C C8U C10G A16G U28G | 0.03
104 | A6C C8A G22A G27U U32A U38G | 0.11
105 | A6C C8A G36U G44C | 0.13
106 | A6C G21U G27C G33C | 0.01
107 | A6C A12G A26U G27C U43C | 0.02
108 | A6C C10A U28C U38C | 0
109 | G5U U9A U38A | 0.1
110 | A6C G21U G30U G40U | 0
111 | A6C C8A G21C | 0.18
112 | A6C C31A C45A | 0.04
113 | A6C C23G A24C A26U | 1.08
114 | G5U U9A C31U | 0.09
115 | A6C A16U C23G U28A G29A C37A | 0.08
116 | A6C C8A C46U | 0.24
117 | A6C G7U U38C | 0
118 | G5U U9A A14G U20G G27C | 0.22
119 | A6C C10U G21C G22U A24G G40C | 0
120 | A6C C37A C42U | 0.06

Row | Variant | self-cleavage
121 | A6C C10A A25G | 0.01
122 | G5U U9G U32C | 0.08
123 | A6C G7U G40A | 0.28
124 | A6C A14G G30U G40A | 0.01
125 | A6C C10A A12C A26C U34C | 0.01
126 | G5U U28A G40U | 0.08
127 | A6C G19U A25G A41C U43A | 0.01
128 | A6C C8G G33C C37U | 0.01
129 | G5U U20G C31U | 0.03
130 | A6C A11C A25U G44C C45U | 0.01
131 | G5U U9A A14U G22A C23U A41U | 0.73
132 | A6C C10A A16C G33C | 0.03
133 | A6C G7U G21C U43A | 0.06
134 | G5U U20C C31U A39U C42G | 0
135 | A6C A24U G33U U34A G44C | 0.01
136 | A6C C31A A39U | 0.02
137 | A6C C18A A39G | 0.04
138 | G5U U20G G21U A25G A26U G29C G44C | 0.01
139 | A6C C10A U34C C42U | 0.07
140 | A6C A11G U20G G21U C45G C46U | 0.02
141 | A6C A16U G22A G35A | 0.02
142 | A6C C23G G27C | 0.16
143 | A6C G22U C31G | 0.03
144 | A6C G27U U38C | 0.17

Row | Variant | self-cleavage
145 | A6C C13A G17U | 0.18
146 | A6C C10U G21C C37U | 0.02
147 | A6C G7C A11C G44U | 0.02
148 | A6C A25C G35A | 0.13
149 | A6C G22U U32G | 0.06
150 | G5U U20C C42U | 0
151 | A6C C8A C42U | 0.33
152 | A6C A14U A16C C31G C45U | 0.05
153 | A6C A12C A25U C31G | 0.01
154 | A6C G30U C46G | 0.28
155 | G5U U43A C46A | 0.36
156 | A6C C23A U28A G44U | 0.06
157 | A6C C10A G29A | 0
158 | A6C C13A A16G A25C | 0.07
159 | A6C C10G G19A G35C G36A | 0.01
160 | A6C C10A U28A U43G | 0.07
161 | G5U U20A C45A | 0.02
162 | A6C C8A G30C G40U | 0.1
163 | A6C G19C C23A A25G C46G | 0.64
164 | A6C C18G G22U U43C | 0.04
165 | A6C A11C C15U A24G | 0.02
166 | A6C C15U A25G A26C G33U | 0.24
167 | A6C A24U U32C | 0.13
